Assay results as given in the supplement of paper PMC4604168 (melanoma cell lines).
Some of the results follow. Repeats are few or missing, and single values can be far off.

Columns and labels:
Test in all cases: cell count relative to DMSO control; melanoma cells; higher = more viable cells
Conditions in all cases: library dose: low library concentration; 72 h
WM115 = tested on: WM115
WM1716 = tested on: WM1716
WM1745 = tested on: WM1745
WM3526 = tested on: WM3526
WM3619 = tested on: WM3619
WM451Lu = tested on: WM451Lu
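Further: cell number obtained by counting DAPI-stained nuclei in high-throughput microscope images with image analysis software, screen run in 1,536-well plates.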

Structure (SMILES) | cell count (WM115) [%] | cell count (WM1716) [%] | cell count (WM1745) [%] | cell count (WM3526) [%] | cell count (WM3619) [%] | cell count (WM451Lu) [%]
O=c1[nH]nc(Sc2ncc([N+](=O)[O-])s2)n1-c1ccc2c(c1)OCCO2 + COCC[n+]1c2c(n(Cc3cnccn3)c1C)C(=O)c1ccccc1C2=O [YM155] (first compound 0.2 µM, partner dose 0.0004 µM) | 105 | 97.8 | 97.7 | 95.9 | 102 | 73.9
COc1cc(Nc2ncc(F)c(Nc3ccc4c(n3)NC(=O)C(C)(C)O4)n2)cc(OC)c1OC [Tamatinib] + CCc1ccc(CCOc2ccc(CC3SC(=O)NC3=O)cc2)nc1 [pioglitazone] (first compound 0.4 µM, partner dose 2 µM) | 97.6 | 89.7 | 83.3 | 99.7 | 100 | 104
O=c1[nH]nc(Sc2ncc([N+](=O)[O-])s2)n1-c1ccc2c(c1)OCCO2 + CC1(C)NC(=O)N(c2ccc([N+](=O)[O-])c(C(F)(F)F)c2)C1=O [nilutamide] (first compound 0.2 µM, partner dose 1 µM) | 106 | 114 | 96 | 122 | 139 | 116
O=c1[nH]nc(Sc2ncc([N+](=O)[O-])s2)n1-c1ccc2c(c1)OCCO2 + O=C(Nc1cccc(Cl)c1)Nc1ncc(CCNc2ncnc3ccsc23)s1 [SNS314] (first compound 0.2 µM, partner dose 0.0008 µM) | 78.9 | 105 | 108 | 88.1 | 95.4 | 104
O=C(O)c1ccc(-c2c[nH]c3ncc(-c4ccccc4)cc23)cc1C1CCCC1 + COc1ccc(COc2ccc(Cc3cnc(N)nc3N)cc2OC)cc1 [GW2580] (first compound 0.16 µM, partner dose 1 µM) | 103 | 84 | 88.9 | 93.6 | 96.6 | 84.5
O=c1[nH]nc(Sc2ncc([N+](=O)[O-])s2)n1-c1ccc2c(c1)OCCO2 + NC(=O)Nc1cc(-c2cccc(F)c2)sc1C(=O)N[C@H]1CCCNC1 [AZD7762] (first compound 0.2 µM, partner dose 0.02 µM) | 101 | 96.3 | 82.8 | 86.9 | 64.7 | 91.2
COc1cc(Nc2ncc(F)c(Nc3ccc4c(n3)NC(=O)C(C)(C)O4)n2)cc(OC)c1OC [Tamatinib] + CC(C)(C)c1cnc(CSc2cnc(NC(=O)C3CCNCC3)s2)o1 [SNS-032] (first compound 0.4 µM, partner dose 0.01 µM) | 89.9 | 91.8 | 72.6 | 70.3 | 116 | 110
O=c1[nH]nc(Sc2ncc([N+](=O)[O-])s2)n1-c1ccc2c(c1)OCCO2 + COc1ccc(COc2ccc(Cc3cnc(N)nc3N)cc2OC)cc1 [GW2580] (first compound 0.2 µM, partner dose 1 µM) | 100 | 96.8 | 97 | 117 | 94.5 | 75.2
Cn1cncc1[C@@](N)(c1ccc(Cl)cc1)c1ccc2c(c1)c(-c1cccc(Cl)c1)cc(=O)n2C [tipifarnib] + COc1ccc(COc2ccc(Cc3cnc(N)nc3N)cc2OC)cc1 [GW2580] (first compound 0.01 µM, partner dose 1 µM) | 83.9 | 78.6 | 87 | 91.7 | 96 | 82.5
O=c1[nH]nc(Sc2ncc([N+](=O)[O-])s2)n1-c1ccc2c(c1)OCCO2 + Cc1ccc(Nc2nccc(N(C)c3ccc4c(C)n(C)nc4c3)n2)cc1S(N)(=O)=O [Pazopanib] (first compound 0.2 µM, partner dose 0.4 µM) | 98.8 | 83.2 | 95.3 | 97.7 | 84.7 | 93.1
Cn1cncc1[C@@](N)(c1ccc(Cl)cc1)c1ccc2c(c1)c(-c1cccc(Cl)c1)cc(=O)n2C [tipifarnib] + O=C(O)C(=O)Nc1sc2c(c1C(=O)O)CCNC2 [TCS401] (first compound 0.01 µM, partner dose 1.66667 µM) | 99.7 | 79.3 | 117 | 108 | 112 | 102
O=c1[nH]nc(Sc2ncc([N+](=O)[O-])s2)n1-c1ccc2c(c1)OCCO2 + CS(=O)(=O)CCNCc1ccc(-c2ccc3ncnc(Nc4ccc(OCc5cccc(F)c5)c(Cl)c4)c3c2)o1 [lapatinib] (first compound 0.2 µM, partner dose 0.8 µM) | 113 | 120 | 101 | 100 | 102 | 97.3
C[C@@H]1CCN(C(=O)CC#N)C[C@@H]1N(C)c1ncnc2[nH]ccc12 + Oc1nc(-c2ccc(C(F)(F)F)cc2)nc2c1CSCC2 [XAV939] (first compound 1 µM, partner dose 2 µM) | 76.1 | 72.6 | 86.8 | 91.2 | 105 | 114
O=C(O)c1ccc(-c2c[nH]c3ncc(-c4ccccc4)cc23)cc1C1CCCC1 + c1cc(-c2cnn3cc(-c4ccc(OCCN5CCCCC5)cc4)cnc23)ccn1 [Dorsomorphin] (first compound 0.16 µM, partner dose 0.4 µM) | 99 | 93.7 | 96.7 | 94.6 | 133 | 103
O=c1[nH]nc(Sc2ncc([N+](=O)[O-])s2)n1-c1ccc2c(c1)OCCO2 + CN(c1ncccc1CNc1nc(Nc2ccc3c(c2)CC(=O)N3)ncc1C(F)(F)F)S(C)(=O)=O [PF562271] (first compound 0.2 µM, partner dose 0.08 µM) | 83.1 | 93 | 87.6 | 103 | 87.8 | 85.9
COc1cc(Nc2ncc(F)c(Nc3ccc4c(n3)NC(=O)C(C)(C)O4)n2)cc(OC)c1OC [Tamatinib] + COc1ccc(COc2ccc(Cc3cnc(N)nc3N)cc2OC)cc1 [GW2580] (first compound 0.4 µM, partner dose 1 µM) | 89.1 | 95.4 | 63.8 | 83.2 | 101 | 107
Cn1cncc1[C@@](N)(c1ccc(Cl)cc1)c1ccc2c(c1)c(-c1cccc(Cl)c1)cc(=O)n2C [tipifarnib] + O=C(Nc1ccccc1)c1cc([N+](=O)[O-])ccc1Cl [GW9662] (first compound 0.01 µM, partner dose 2 µM) | 95.5 | 87.6 | 121 | 89.4 | 80.3 | 115
